# Results: the supplement of paper PMC4967469
# Lines with a small IC50 respond at low doses; a fit beyond the top or the lowest dose is shown as a bound at that dose. For AUC the same curve is integrated over the 256-fold range of doses and scaled to a fraction: 1 means no effect, lower means more sensitive. For part of these data: An inferred top dose is not printed in the source and was worked back from the curve model. For part of these data: Where an entry number is given, a second screen of the drug exists; the two often differ.
# Assays:
# Assay in all cases: Viability of human cancer cell lines after 72 h of drug (GDSC screen)
# Zibotentan = compound: COc1nc(C)cnc1NS(=O)(=O)c1cccnc1-c1ccc(-c2nnco2)cc1 [Zibotentan]; details: top dose 20 µM; top dose inferred
# Procedure: (§1)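 Human cancer cell lines in 384-well plates, medium with 10% serum, drug for 72 h over a 256-fold dose range (nine 2-fold or five 4-fold steps up to the top dose). Adherent lines were fixed and stained with the nucleic acid dye Syto60, suspension lines read with resazurin; signal relative to control wells, capped at 0 and 100%. One two-parameter sigmoid per drug and line, fitted in a mixed model over all curves with the slope shared within a line.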
# MPS-1-IN-1 = compound: COc1cc(N2CCC(O)CC2)ccc1Nc1cc(Nc2ccccc2S(=O)(=O)C(C)C)c2cc[nH]c2n1 [MPS-1-IN-1]; details: top dose 20 µM; top dose inferred
# Procedure: as §1
# (5Z)-7-Oxozeaenol = compound: COc1cc(O)c2c(c1)/C=C/C[C@H](O)[C@H](O)C(=O)/C=C\C[C@H](C)OC2=O [(5Z)-7-Oxozeaenol]; details: top dose 10 µM; top dose inferred
# Procedure: as §1
# GSK269962A = compound: CCn1c(-c2nonc2N)nc2cnc(Oc3cccc(NC(=O)c4ccc(OCCN5CCOCC5)cc4)c3)cc21 [GSK269962A]; details: top dose 5 µM; screen: GDSC drug entry 1192; top dose inferred
# Procedure: as §1
# KU-55933 = compound: O=c1cc(-c2cccc3c2Sc2ccccc2S3)oc(N2CCOCC2)c1 [KU-55933]; details: top dose 10 µM
# Procedure: as §1
# CP466722 = compound: COc1cc2ncnc(-n3nc(-c4ccccn4)nc3N)c2cc1OC [CP466722]; details: top dose 16 µM; top dose inferred
# Procedure: as §1
# QL-X-138 = compound: C=CC(=O)Nc1cc(-n2c(=O)ccc3cnc4ccc(-c5cn[nH]c5)cc4c32)ccc1C [QL-X-138]; details: top dose 10.24 µM; top dose inferred
# Procedure: as §1
# ABT-869 = compound: Cc1ccc(F)c(NC(=O)Nc2ccc(-c3cccc4[nH]nc(N)c34)cc2)c1 [ABT-869]; details: top dose 1.024 µM; top dose inferred
# Procedure: as §1
# CHIR-99021 = compound: Cc1cnc(-c2cnc(NCCNc3ccc(C#N)cn3)nc2-c2ccc(Cl)cc2Cl)[nH]1 [CHIR-99021]
# Procedure: as §1
# Thapsigargin = compound: C/C=C(/C)C(=O)O[C@H]1C(C)=C2[C@H]([C@@H]1OC(=O)CCCCCCC)[C@@](C)(OC(C)=O)C[C@H](OC(=O)CCC)[C@@]1(O)[C@H]2OC(=O)[C@@]1(C)O [Thapsigargin]; details: top dose 0.512 µM; top dose inferred
# Procedure: as §1
# ABT-888 = compound: C[C@]1(c2nc3c(C(N)=O)cccc3[nH]2)CCCN1 [ABT-888]; details: top dose 5 µM; top dose inferred
# Procedure: as §1
# [1] = top dose 2.56 µM, screen: GDSC drug entry 154
# [2] = top dose 10 µM, screen: GDSC drug entry 1241, top dose inferred
Cell Line,AUC (Zibotentan),IC50 (Zibotentan),AUC (MPS-1-IN-1),IC50 (MPS-1-IN-1),AUC ((5Z)-7-Oxozeaenol),IC50 ((5Z)-7-Oxozeaenol),AUC (GSK269962A),IC50 (GSK269962A),AUC (KU-55933),IC50 (KU-55933),AUC (CP466722),IC50 (CP466722),AUC (QL-X-138),IC50 (QL-X-138),AUC (ABT-869),IC50 (ABT-869),AUC (CHIR-99021; [1]),IC50 (CHIR-99021; [1]),AUC (CHIR-99021; [2]),IC50 (CHIR-99021; [2]),AUC (Thapsigargin),IC50 (Thapsigargin),AUC (ABT-888),IC50 (ABT-888)
"BICR78 (head and neck, adherent)",0.983,> 20 µM,0.97,> 20 µM,0.557,0.915 µM,0.917,> 5 µM,0.914,> 10 µM,0.923,> 16 µM,0.837,8.43 µM,0.982,> 1.02 µM,0.983,> 2.56 µM,0.946,> 10 µM,0.596,0.0612 µM,0.955,> 5 µM
"BT-20 (breast, adherent)",0.983,> 20 µM,0.972,> 20 µM,0.72,3.1 µM,0.981,> 5 µM,0.983,> 10 µM,0.853,> 16 µM,0.738,3.68 µM,0.978,> 1.02 µM,0.982,> 2.56 µM,0.963,> 10 µM,0.722,0.161 µM,0.973,> 5 µM
"BxPC-3 (pancreas, adherent)",0.981,> 20 µM,0.871,> 20 µM,0.763,4.01 µM,0.935,> 5 µM,0.955,> 10 µM,0.839,12.9 µM,0.886,> 10.2 µM,0.974,> 1.02 µM,0.86,> 2.56 µM,0.904,> 10 µM,0.288,0.00744 µM,0.983,> 5 µM
"C-33-A (cervix, adherent)",0.986,> 20 µM,0.886,> 20 µM,0.533,0.771 µM,0.571,0.49 µM,0.974,> 10 µM,0.705,3.79 µM,0.586,1.1 µM,0.986,> 1.02 µM,0.96,> 2.56 µM,0.985,> 10 µM,0.296,0.00851 µM,0.982,> 5 µM
"CAL-33 (head and neck, adherent)",0.986,> 20 µM,0.916,> 20 µM,0.762,3.57 µM,0.827,3.05 µM,0.869,9.28 µM,0.838,10.8 µM,0.674,1.95 µM,0.986,> 1.02 µM,0.972,> 2.56 µM,0.945,> 10 µM,0.499,0.0318 µM,0.973,> 5 µM
"CAL-51 (breast, adherent)",0.991,> 20 µM,0.991,> 20 µM,0.535,0.769 µM,0.858,3.26 µM,0.933,> 10 µM,0.907,> 16 µM,0.903,> 10.2 µM,0.991,> 1.02 µM,0.99,> 2.56 µM,0.962,> 10 µM,0.16,0.00359 µM,0.984,> 5 µM
